Test results as given in the supplement of paper PMC12217912.
The other results are listed elsewhere or left out. The full chains were built here from the parent and the listed change. Values near 0.05 are background.

B1: TEV protease; numbered along this chain (parent)
chain: MGESLFKGPRDYNPISSSICHLTNESDGHTTSLYGIGFGPFIITNKHLFRRNNGTLVVQSLHGVFKVKDTTTLQQHLVDGRDMIIIRMPKDFPPFPQKLKFREPQREERICLVTTNFQTKSMSSMVSDTSCTFPSGDGIFWKHWIQTKDGQCGSPLVSTRDGFIVGIHSASNFTNTNNYFTSVPKNFMELLTNQEAQQWVSGWRLNADSVLWGGHKVFMVKPEEPFQPVKEATQL

Variants of: B1
Test: raw area under fraction-flipped curve 0-4 h after induction (AUC4h, not background-subtracted), DNA-recorder readout of cleavage of the substrate (dimensionless); higher = more cleavage of the substrate by the protease variant
Details: temperature: 34 °C; time window: 0-4 h after rhamnose induction
Protocol: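 In vivo DNA recorder in E. coli TOP10(DE3) ΔrhaA at 34 °C. Each TEVp single-site mutant (parent TEVp 0) is paired with a single-site variant of the 7-mer TEVs (canonical ENLYFQ|S). The substrate sits between flexible linkers in a Bxb1-sfGFP-TEVs-SsrA fusion, so cleavage stabilises Bxb1 and speeds flipping of a recombination array, read by NGS. The value is the raw area under the fraction-flipped curve over 0-4 h after rhamnose induction (AUC4h), with ≥20 reads per time point. It is not background-subtracted; inactive controls average about 0.047.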
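Note: Bxb1 expression induced with 0.2% (w/v) L-rhamnose at OD600 near 0.5, cultures sampled hourly, flipped fraction per protease–substrate barcode pair counted by paired-end Illumina sequencing.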

| Variant | area with substrate ENLAFQS | area with substrate ENLCFQS | area with substrate ENLDFQS | area with substrate ENLEFQS | area with substrate ENLFFQS | area with substrate ENLGFQS | area with substrate ENLHFQS | area with substrate ENLIFQS | area with substrate ENLKFQS | area with substrate ENLLFQS | area with substrate ENLNFQS | area with substrate ENLPFQS | area with substrate ENLQFQS | area with substrate ENLRFQS | area with substrate ENLSFQS | area with substrate ENLTFQS | area with substrate ENLVFQS | area with substrate ENLWFQS | area with substrate ENLMFQS |
| --- | --- | --- | --- | --- | --- | --- | --- | --- | --- | --- | --- | --- | --- | --- | --- | --- | --- | --- | --- |
| C20P | 0.0428 | 0.0367 | 0.0498 | 0.0469 | 0.0543 | 0.066 | 0.0529 | 0.0585 | 0.0543 | 0.0613 | 0.0588 | 0.0505 | 0.0477 | 0.0515 | 0.0524 | 0.0423 | 0.0541 | 0.0587 | – |
| H21L | 0.0726 | 0.0734 | 0.0649 | 0.0688 | 0.079 | 0.0688 | 0.0725 | 0.116 | 0.0753 | 0.0656 | 0.0684 | – | – | – | 0.0537 | – | 0.0905 | – | – |
| L22N | 0.0334 | 0.0448 | 0.0469 | – | 0.0603 | 0.063 | 0.0508 | 0.0348 | 0.0516 | – | 0.0481 | 0.0478 | 0.0509 | 0.0453 | – | – | 0.0473 | 0.0708 | – |
| T23H | 0.0637 | 0.0582 | – | 0.0543 | 0.084 | 0.0665 | 0.0709 | 0.0755 | 0.0584 | 0.0598 | 0.0691 | 0.068 | – | 0.0764 | 0.0601 | – | 0.0834 | – | – |
| T23V | 0.114 | 0.07 | 0.059 | – | 0.0901 | 0.0538 | 0.0784 | – | 0.0908 | 0.0797 | 0.0658 | 0.0602 | 0.0631 | 0.08 | 0.0683 | 0.0754 | 0.109 | 0.0613 | 0.0584 |
| N24M | 0.0668 | – | – | – | 0.0574 | 0.0638 | – | – | 0.0679 | 0.0888 | 0.0796 | 0.0584 | – | – | – | 0.088 | – | – | 0.0814 |
| E25D | 0.067 | – | 0.0727 | 0.0581 | 0.0898 | – | 0.0494 | 0.0823 | 0.0749 | – | 0.0608 | 0.0775 | 0.0804 | – | 0.0617 | 0.0805 | – | 0.05 | – |
| E25V | 0.0701 | – | 0.0681 | 0.0633 | 0.103 | 0.0661 | 0.0684 | 0.0807 | 0.0863 | 0.0704 | 0.0615 | 0.0518 | – | 0.0802 | 0.0645 | – | 0.0738 | 0.056 | 0.0813 |
| S26D | 0.0731 | 0.0723 | 0.0659 | 0.0658 | 0.0668 | – | – | 0.0748 | 0.0786 | – | 0.0659 | 0.0694 | 0.0613 | 0.0397 | 0.0623 | – | 0.0787 | 0.073 | 0.0695 |
| D27L | 0.0623 | 0.067 | 0.06 | 0.0542 | 0.0746 | – | 0.0639 | 0.0758 | 0.0758 | 0.0639 | 0.0627 | 0.0623 | 0.0486 | 0.0477 | 0.0668 | – | 0.0961 | 0.0628 | – |
| G28K | 0.067 | – | 0.0552 | 0.0628 | 0.0733 | – | 0.0774 | – | 0.0763 | – | – | 0.0622 | 0.0675 | 0.0644 | – | 0.0651 | – | 0.0679 | – |
| H29K | 0.0558 | – | – | – | 0.0551 | – | 0.0685 | 0.0801 | 0.0764 | – | 0.0591 | – | – | – | 0.0759 | – | 0.0781 | – | – |
| T30Q | 0.0629 | 0.0753 | 0.0652 | 0.0688 | 0.103 | 0.0639 | – | 0.0843 | 0.072 | – | 0.0535 | 0.0396 | 0.0664 | 0.0739 | 0.0637 | 0.0702 | 0.0766 | 0.068 | 0.0792 |
| T31D | 0.0708 | 0.0759 | 0.0704 | 0.0614 | 0.0805 | – | 0.0549 | 0.0901 | 0.0848 | – | 0.0612 | 0.0627 | 0.0639 | 0.078 | 0.0622 | – | – | – | – |
| T31N | 0.0624 | 0.0942 | 0.0624 | 0.061 | 0.0873 | – | 0.0536 | 0.0803 | 0.0782 | 0.0646 | 0.0642 | 0.0621 | 0.0496 | 0.072 | 0.0565 | – | 0.0877 | 0.0681 | – |
| T31S | 0.0616 | 0.0824 | 0.0474 | 0.0781 | – | 0.0515 | 0.0564 | – | 0.0802 | – | 0.0622 | 0.0587 | 0.0522 | 0.0768 | 0.0548 | – | – | 0.0714 | – |
| L33G | 0.065 | 0.0464 | 0.068 | 0.0458 | 0.0847 | 0.07 | 0.0652 | 0.0697 | 0.0679 | – | 0.0569 | 0.0626 | 0.059 | 0.0739 | 0.0675 | – | 0.0903 | 0.0634 | 0.0622 |
| L33W | 0.069 | – | 0.0642 | 0.0723 | 0.0662 | 0.0373 | 0.056 | 0.0609 | – | – | 0.0643 | 0.0605 | 0.0667 | 0.0647 | 0.0654 | – | – | 0.0493 | 0.073 |
| G35W | 0.0486 | – | 0.0582 | 0.0513 | 0.0781 | 0.0778 | – | – | 0.0603 | – | 0.0435 | 0.0554 | 0.041 | 0.0328 | 0.07 | – | 0.0491 | 0.0522 | – |
| I36F | 0.0636 | 0.058 | 0.0656 | 0.0325 | 0.0517 | – | 0.0665 | – | 0.0707 | – | 0.0752 | 0.0599 | – | 0.0579 | 0.0582 | – | – | 0.0612 | – |
| I36Q | 0.0551 | – | 0.0578 | 0.0471 | 0.0581 | – | 0.0582 | – | 0.0619 | – | 0.0504 | – | 0.0767 | 0.0516 | 0.0467 | – | – | 0.0475 | – |
| G37M | 0.0589 | – | 0.0563 | 0.0433 | 0.0571 | – | 0.0491 | 0.0265 | 0.0653 | – | 0.0778 | 0.0551 | 0.0668 | – | 0.0538 | – | 0.0723 | – | 0.0593 |
| G39C | 0.0376 | 0.0469 | 0.0424 | 0.05 | 0.0496 | – | 0.0555 | 0.0317 | 0.0523 | 0.0499 | 0.0527 | 0.0501 | 0.0542 | 0.0551 | 0.04 | – | 0.0208 | 0.0406 | – |
| G39H | 0.0495 | 0.0514 | 0.0405 | 0.0627 | 0.0477 | – | 0.046 | 0.0472 | 0.0463 | 0.0318 | 0.0415 | 0.0466 | 0.039 | 0.0466 | 0.0403 | – | 0.0452 | 0.0461 | 0.0423 |
| G39T | 0.0387 | – | 0.0394 | 0.0403 | 0.0469 | – | 0.0395 | 0.0278 | – | 0.0376 | 0.0394 | 0.0616 | – | 0.0286 | 0.0281 | – | – | 0.0588 | – |
